Data: PubChem BioAssay AID1347165 (National Center for Advancing Translational Sciences (NCATS), 2019)
The campaign covered roughly 220,000 compounds. About 5,700 (2.6%) were called active. This list was built around the results that the source calls inconclusive (neither active nor inactive); the mix of calls is not that of the screen. Calls come from the whole dose curve; as a rule, active = well fitted inhibition curve with a large enough effect; inconclusive = small, poorly fitted or top-dose-only effect; inactive = no such curve, though single readings can be large or run the other way. A potency beside an inconclusive call is a rough fit, not a confirmed value.
Note: nearly all actives have a fitted effect of over 70% in size.
Potency is the fitted concentration of half-maximal effect; tags give direction and shape of the fitted curve.
Throughout, for activity change, negative = inhibition: 0% is about no effect.

The molecules below were run against Lysine-specific demethylase 5B (Homo sapiens) (UniProt Q9UGL1) (assay: Primary screen for KDM5B Histone Demethylases FDH-coupled qHTS). Settings: FDH-coupled NADH fluorescence (FDH is formaldehyde dehydrogenase); activity change, negative = inhibition: at 57.7 µM (top of the series) unless noted.
UniProt Q9UGL1, sequence (Q9UGL1 whole entry, looked up): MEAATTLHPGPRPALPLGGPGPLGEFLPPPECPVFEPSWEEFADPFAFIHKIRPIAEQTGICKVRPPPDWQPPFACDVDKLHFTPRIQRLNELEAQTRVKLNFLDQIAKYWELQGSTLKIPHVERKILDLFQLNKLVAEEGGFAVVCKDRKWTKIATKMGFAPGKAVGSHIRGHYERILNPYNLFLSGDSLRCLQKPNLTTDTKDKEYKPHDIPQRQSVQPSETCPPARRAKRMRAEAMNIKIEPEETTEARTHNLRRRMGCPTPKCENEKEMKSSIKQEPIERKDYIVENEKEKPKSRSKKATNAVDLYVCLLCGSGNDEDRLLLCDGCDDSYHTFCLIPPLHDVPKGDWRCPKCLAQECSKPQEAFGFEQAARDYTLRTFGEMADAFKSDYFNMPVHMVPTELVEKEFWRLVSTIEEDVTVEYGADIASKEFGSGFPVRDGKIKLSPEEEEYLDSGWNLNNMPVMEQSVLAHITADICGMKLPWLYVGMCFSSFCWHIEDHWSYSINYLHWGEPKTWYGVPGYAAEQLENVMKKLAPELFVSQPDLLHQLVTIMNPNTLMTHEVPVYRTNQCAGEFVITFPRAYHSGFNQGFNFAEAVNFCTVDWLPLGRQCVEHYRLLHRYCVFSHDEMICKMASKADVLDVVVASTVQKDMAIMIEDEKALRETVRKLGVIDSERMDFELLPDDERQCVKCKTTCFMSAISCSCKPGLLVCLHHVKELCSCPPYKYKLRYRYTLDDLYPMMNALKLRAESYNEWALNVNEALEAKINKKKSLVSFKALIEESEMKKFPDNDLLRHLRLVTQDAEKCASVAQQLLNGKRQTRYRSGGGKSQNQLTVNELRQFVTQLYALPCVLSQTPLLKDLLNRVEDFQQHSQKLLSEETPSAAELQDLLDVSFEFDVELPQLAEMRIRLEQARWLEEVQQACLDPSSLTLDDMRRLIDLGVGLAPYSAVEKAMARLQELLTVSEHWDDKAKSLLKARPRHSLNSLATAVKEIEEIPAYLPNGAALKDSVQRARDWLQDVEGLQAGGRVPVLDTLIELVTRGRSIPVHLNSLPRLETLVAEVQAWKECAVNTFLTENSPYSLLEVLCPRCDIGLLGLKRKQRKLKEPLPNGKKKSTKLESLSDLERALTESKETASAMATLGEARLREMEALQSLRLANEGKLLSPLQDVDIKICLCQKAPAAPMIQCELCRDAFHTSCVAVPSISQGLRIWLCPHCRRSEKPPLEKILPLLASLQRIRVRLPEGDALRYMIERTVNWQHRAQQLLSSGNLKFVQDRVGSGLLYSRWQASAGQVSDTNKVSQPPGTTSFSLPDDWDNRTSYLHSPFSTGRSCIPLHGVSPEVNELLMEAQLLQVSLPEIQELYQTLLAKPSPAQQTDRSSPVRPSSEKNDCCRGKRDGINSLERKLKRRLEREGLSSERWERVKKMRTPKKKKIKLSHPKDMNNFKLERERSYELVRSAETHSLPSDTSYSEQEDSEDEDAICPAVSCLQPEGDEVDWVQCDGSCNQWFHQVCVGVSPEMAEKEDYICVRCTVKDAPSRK
Summary of the method: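 Measured: NADH fluorescence change, 30 min, RT. System: KDM5BΔAP 200 nM final, H3K4me3 peptide, α-KG, Fe(II), ascorbate, NAD⁺ plus FDH, pH 7.5 HEPES. Compounds: titrated, 10 min pre-incubation with enzyme.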
`C=CCNc1nc(-c2ccc(S(=O)(=O)N3CCOCC3)cc2)cs1` was tested, and the Potency was inconclusive: 25.1 µM [inhibitor, partial curve, poor fit].
With `OCC1CN(C2CCC2)CC12CCN(C1CCC1)CC2` (centres undefined) the Potency was inconclusive: 12.6 µM [inhibitor, partial curve].
With `Cc1ccc(-c2cn3c(n2)N(C(=O)Cn2ccnc2C)CCC3)cc1` the Potency was “inactive”.
For `CC(C)Cc1nc(NCCN)c(C#N)c2c1CCCC2`, the Potency was inconclusive: 20 µM [inhibitor, single point].
`S=c1[nH]nc(-c2cc(-c3ccccc3)n[nH]2)n1/N=C/c1ccc(Br)s1` was tested, and the Potency was inconclusive: 2.82 µM [inhibitor, full curve, poor fit].
`CCN(CC)C(=O)c1ccc2c(c1)N(Cc1ccccc1F)C(=O)c1ccccc1S2=O` (centres undefined) was tested, and the Potency was inconclusive: 17.8 µM [inhibitor, partial curve, poor fit].
In the case of `COc1ccccc1CN[C@H]1CC(C)(C)[C@@H]2C[C@@](C)(O)CC[C@]12CCC(=O)NC1CC1`, the Potency is reported as “inactive”.
With `COC(=O)c1cnc(Oc2ccc(NC(=O)NC(=O)c3c(OC)cccc3OC)cc2)cc1C(F)(F)F` the Potency was inconclusive: 39.8 µM [inhibitor, single point].
In the case of `CCN1CCN(c2nc3c(S(=O)(=O)c4ccc(C)cc4)nnn3c3ccsc23)CC1`, the Potency is reported as inconclusive: 15.8 µM [inhibitor, partial curve, poor fit].
In the case of `Cc1ccc(/C(O)=C/C(=O)C(=O)NC23CC4CC(CC(C4)C2)C3)cc1`, the Potency is reported as inconclusive: 20 µM [inhibitor, partial curve, poor fit].
For `COC(=O)c1cccc(-c2ccc(C=O)o2)c1`, the Potency was “inactive”.
With `O=C(c1ccncc1)N1CCC2(CC1)NCc1ccccc1NC2=O` the Potency was inconclusive: 89.1 µM [inhibitor, partial curve, poor fit].
For `COc1cc(OC)c(NC(=O)CC(C)S(=O)(=O)c2ccc3c(c2)NC(=O)CO3)cc1Cl` (centres undefined), the activity change, negative = inhibition was inconclusive: -30.7% [inhibitor].
For `COc1ccc(OCC(=O)Nc2ccc3oc(-c4cccc(F)c4)nc3c2)cc1`, the Potency was inconclusive: 22.4 µM [inhibitor, single point].
`COc1ccc(S(=O)(=O)NCCc2csc(-c3cccc(F)c3)n2)cc1OC` was tested, and the Potency was inconclusive: 1.58 µM [inhibitor, partial curve, poor fit].
`CN(C)c1ccc(/C=N/NC(=O)c2ccc3ccccc3c2)cc1` was tested, and the Potency was inconclusive: 39.8 µM [inhibitor, single point].
In the case of `CCc1noc(C)c1C(=O)Nc1sc2c(c1C#N)CCC(CC)C2` (centres undefined), the Potency is reported as inconclusive: 1.78 µM [inhibitor, partial curve, poor fit].
In the case of `Cc1cc(C)c(NC(=O)CN(C)Cc2ncc(-c3ccc(F)cc3)o2)c(C)c1`, the Potency is reported as “inactive”.
With `COc1ccccc1CC(=O)N1CCCc2ncc(C(=O)Nc3cccc(F)c3)cc21` the Potency was inconclusive: 31.6 µM [inhibitor, single point].
For `CC(C)c1ccc(NC(=O)Cc2ccc(NC(=O)N3CCCCc4ccccc43)cc2)cc1`, the Potency was inconclusive: 0.891 µM [inhibitor, full curve, poor fit].
`COc1ccc(C2CC(=O)c3cc(-c4nc(-c5ccc(C)cc5)cs4)c(=O)[nH]c3C2)cc1` (centres undefined) was tested, and the Potency was inconclusive: 15.8 µM [inhibitor, partial curve, poor fit].
For `CCCc1ccc(/C(C)=N/NC(=O)C2CC2c2ccccc2)cc1` (centres undefined), the Potency was “inactive”.
In the case of `CC(=O)c1c(C)n([O-])c2cc(C)ccc2[n+]1=O`, the Potency is reported as inconclusive: 14.1 µM [inhibitor, single point].
With `CCOC(=O)c1ccc(NC(=O)CSc2nc(-c3ccc(F)cc3)cc(C(F)(F)F)c2C#N)cc1` the Potency was inconclusive: 35.5 µM [inhibitor, partial curve, poor fit].
With `CCN(CC)c1ncnc2c1sc1nc(-c3ccco3)c3c(c12)CC(C)(C)OC3` the Potency was inconclusive: 25.1 µM [inhibitor, partial curve, poor fit].
With `COc1ccccc1NC(=O)c1ccc(-c2nc(COc3ccc(C)cc3)c(C)o2)cc1` the Potency was inconclusive: 20 µM [inhibitor, partial curve, poor fit].
`CC(C)CCN1CCCC2(COc3ccccc3C(=O)N2)C1` (centres undefined) was tested, and the Potency was inconclusive: 39.8 µM [inhibitor, partial curve, poor fit].
`Cc1noc(C)c1-c1cc2cc(CO)oc2c(NC2CCN(C)CC2)n1` was tested, and the Potency was inconclusive: 22.4 µM [inhibitor, partial curve, poor fit].
In the case of `O=c1c(Cl)c(N2CCN(Cc3nc(-c4ccsc4)no3)CC2)cnn1-c1ccccc1`, the Potency is reported as “inactive”.
For `Cc1ccc(-c2nc(CNS(=O)(=O)c3ccc(Cl)cc3)c(C)o2)cc1`, the Potency was “inactive”.
In the case of `COc1ccc(NC(=O)c2ccc3c(c2)OCCN(C2CCC2)C3)c(F)c1`, the Potency is reported as inconclusive: 56.2 µM [inhibitor, single point].
`CCOc1ccccc1NC(=O)CSc1ccc(-c2ccco2)nn1` was tested, and the Potency was inconclusive: 12.6 µM [inhibitor, partial curve, poor fit].
In the case of `COCCOc1ccnc(-c2noc([C@@H]3CCCN3Cc3ccc4c(c3)OCO4)n2)c1`, the Potency is reported as inconclusive: 28.2 µM [inhibitor, partial curve].
In the case of `CCOC(=O)COc1cc(C)c(Cl)cc1C(=O)c1ccn2nc(-c3ccc(OC)cc3)cc2n1`, the Potency is reported as inconclusive: 15.8 µM [inhibitor, partial curve, poor fit].
With `CC(=O)Oc1ccc2c(C)c(-c3ccccc3)c(=O)oc2c1` the Potency was inconclusive: 17.8 µM [inhibitor, partial curve, poor fit].
In the case of `CS(=O)(=O)Nc1ccc(-c2nc3ccccc3s2)cc1`, the Potency is reported as inconclusive: 17.8 µM [inhibitor, partial curve, poor fit].
In the case of `O=[N+]([O-])c1cccc(-c2noc([C@@H]3C[C@@H](O)CN3C3CCOCC3)n2)c1`, the Potency is reported as inconclusive: 28.2 µM [inhibitor, partial curve].
With `COc1ccc(NC(C)c2nc(-c3cccs3)no2)cc1` (centres undefined) the Potency was “inactive”.
For `NC(=O)c1ccc(CNC2(c3ccc(F)cc3)CCCC2)cc1`, the Potency was “inactive”.
